# The supplement of paper PMC12632987
# The full ranking holds about 1,800 sequences; the median of “median log2 fold change of GCK-ALFA target abundance (FLAG IP / Myc IP barcode read proportion)” is about 0.14, and the lowest 2% start at about -0.84. The list shows a part of the results.
# T1: TRAF2, Q12933
# T1 chain: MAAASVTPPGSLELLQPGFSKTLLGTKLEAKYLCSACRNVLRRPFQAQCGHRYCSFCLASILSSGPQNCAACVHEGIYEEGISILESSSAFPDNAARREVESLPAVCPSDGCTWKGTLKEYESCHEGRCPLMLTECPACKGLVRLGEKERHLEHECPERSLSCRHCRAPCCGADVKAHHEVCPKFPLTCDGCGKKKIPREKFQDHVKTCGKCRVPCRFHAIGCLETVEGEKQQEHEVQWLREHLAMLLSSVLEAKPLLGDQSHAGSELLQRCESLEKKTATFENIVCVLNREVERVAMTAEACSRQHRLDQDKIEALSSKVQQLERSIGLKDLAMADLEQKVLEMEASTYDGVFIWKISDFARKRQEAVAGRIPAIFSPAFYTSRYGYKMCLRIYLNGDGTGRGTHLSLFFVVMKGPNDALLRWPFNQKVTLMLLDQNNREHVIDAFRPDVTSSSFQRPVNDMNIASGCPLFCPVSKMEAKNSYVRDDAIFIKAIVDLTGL
# B1: traf2_out_13_95_1173 (protein)
# chain: EEEKTKKEREIASEAFDKREAVATDFAARVRALIDDPEADALMDEVVRNMNIYTLRHAGAELQAAHPDKAAELAALTAAAEAEMRAIDKETTEKLNAIEE
# B2: traf2_out_1_158_918 (protein)
# chain: DTKRLLMLSSVELVVRDAVESARENGDEETAKALEELGKEVIELVRKLAIEEGKSAEEVIAAIEKLGAEAAAKADPETAAAIERLTRRVISAIKQVEKLM
# B3: traf2_out_16_177_1463 (protein)
# chain: ELSKVMDRILILSHLRKAAEAILEGRPEEAAKHLAEAEKEAEEAGDEEGLALIAEIRALAAEDTPEARAQLAALATELGKKAQEKVDLAEELIKARAEAE
# B4: traf2_out_20_154_1997 (protein)
# chain: PTDEEIDAVSDKLVDASARARAARVAALALENPERADEIWATARAEYANDPLMMAELDRWRARVAAGATLEEFKAEAARYAAEARRLGEELERLIEERRK
# B5: traf2_out_12_165_941 (protein)
# chain: SMRERTEEIVRRAEEEIRRIADAAIAEIRANPDLTPEEVAALRERAVDEMVEVRQRALNELYKAGASIDELAEASERLRRVFDEARARLDAAAAEHLAAR
# B6: traf2_out_9_108_2582 (protein)
# chain: MSREEELEATYAAVLALAAEFRATHELTPEQRASLDAAIEQARRLAAEGEKETAIVLLAIDLARIASEVGDAALEELLARLAAIDPRAAAAAARMAKLLK
# B7: traf2_out_17_162_1596 (protein)
# chain: SALEEKLKELEKRLEELEKRLKELEEKLKNIEKLTPEELTDLLVEASEIKREALELLEEIEKLKDKIPEEKYKRLSERAEEIAERAQRIANKLYRKLLEK
# B8: traf2_out_13_95_1048 (protein)
# chain: SAETAAKIMEIADKMEEEALKLLEEAKKEVADDPEAKAVLEEALRLAEKRGISEAIHLLREASAANPEHKEKFDALIEKLEELRRKAGREVAEVLKEAEE
# B9: traf2_out_18_167_1831 (protein)
# chain: EEEIEEKKNELMDKMVEWSEVKREAQELLQELKADPSKLPEVLKKLKELAEKTGKYKEEVEKIETLPKEEALKAAEELLEKIIEDAQKEMNELYKKYEEL
# B10: traf2_out_17_162_1547 (protein)
# chain: GELEEELRRLREELEELRRRAERLESLLPELPKLSKEELTDLLVEASEARRRALRLAEEIERLREEIGEEEAERLRREALEVAERLQRIANAIYKQLEEK
# B11: traf2_out_6_156_2451 (protein)
# chain: AAEEILARAEAEIEAAIEALAKASPERKIAEISRLAGAAYRALQALRAAGASLEELRAAAERLLETAERAAEEAGLDEDTRNLLLASLRAVADVALAEAA
# B12: traf2_out_18_76_1957 (protein)
# chain: APSPEERLAAAEARLAEVEERYQRAATRALEILPKVSPEQRSELMDLLADASEHLRKAKLALEEAKRTGDYEEQGALFEENLEKAEELIEKLEELVEELE
# B13: traf2_out_11_169_804 (protein)
# chain: EEAEKNREINDFALELNDEAVARLEEAALALAREAGLDPEEVRAIFEAHKGKSLSAVAAALIRHFRERGAEAAAEAVLALYEELKEEINKKMTEKIKELE
# B14: traf2_out_8_144_2544 (protein)
# chain: KLTRRELANEVANIIVELDELIKEVDEETKEVLIKARRELGRALNELAFGGKREEVAKELEEAAKYLEKAIELSKDNPEIKAKLEELLKRVKELIKQVKE
# B15: traf2_out_13_95_1108 (protein)
# chain: SKETAEKIMEIADKMLDEVLKLLNELLEIAKKKGKLEEEVQEAIDLAEYQSINEAIHKLKELAKKYPEFKEEFEKTIEEIEKLKREAGKEVAKIIKEEKE
# B16: traf2_out_5_189_2322 (protein)
# chain: SEKEKENEELRKLAKELSKKASELINELQEKGYSYEEIIEALLEKIKELPIEEARLFTGIAYSILEGIALANNDEELLKAAKEFRERSRKLIEEREKKAK
# B17: traf2_out_18_3_1924 (protein)
# chain: SAEELKEVSERIDEIIDEAEAKAREALDEIKARHPEAAEEVDRLRALLDAGAGPFGILEELAELAKRLGDEELAKELEEFLKEKRKELSELVEEYERLRK
# B18: traf2_out_8_139_2534 (protein)
# chain: EEEEEKRDEEELELVRFIMKAADEIAKIIREEEKDEERAEELSLKVYHLLGKAVANRGNEEKVNEYFDELIKYLKEKGYEKAAELAEKTREEFLEKVKEL
# B19: traf2_out_20_38_2011 (protein)
# chain: SEEEEEKKKEEELIKHAQEAYDEAEKWVAELKAEGKSVEEIAEEAKKRVREKLNAVGLEEEAEELIEDIDRVLDSPDAERLIVQILARADTLVFQKELQK
# B20: traf2_out_4_186_2313 (protein)
# chain: SEIKKARIEGLEILRNSAERLAKELKEKIEKGEKLPEEELKRYVELTVAHLKTVGLYEEAEKVEKAYEEGAPQEELLKLLYEAAELAAEKLKEKLEELKK
# B21: traf2_out_18_117_1789 (protein)
# chain: SEREKIIKELKEIAEKTGKAASELGKLVLEKWEELTPEEKSEAFDVLADLSEVRREAQLLIIEIEKENLPVEEAKKRLEELKKRAEKALKAAEEKIKKIK
# B22: traf2_out_17_162_1594 (protein)
# chain: SELEERLEEIERELEELEKELKRLKEKLKNIEKLSKEELTDLLVEASEARRRALELLERVRSLKSELPPEEYERLATRAEELAEEFQRIANAFYKKLEEM
# B23: traf2_out_6_169_2483 (protein)
# chain: SEEEELKKKAEEHYKTAKDLYELAKTIYEQVKKNNDLENLDNYILAMETILNAAKRHYDLAIEYLKKLGKEEEAKKVEEEKEKVTKEMEKMIEEIKKLKE
# B24: traf2_out_20_3_2104 (protein)
# chain: EELEKELEKELEEAIALLEKAAELADPETAAELKALRAEVEASRSLPYSDRLVKLSEVRRRVLRLAQEARAAGREELAAVLEEAAEALNKAMNLVMKIIE
# B25: traf2_out_20_3_2100 (protein)
# chain: SELEEELERELEEAEALLDEAAALADPETAARLAALRERVRASRELPLTDRLVELSAVRREVLELAQEARAAGREDLAATLEEAADALNRAMNLVMKLIE
# B26: traf2_out_11_169_856 (protein)
# chain: EEEERNRKIIEKALELNDKAKEELRKFALELAKKAGLDVAEVEKIFEKHKNSSLSALAAALIEWFKSKGKEDEAAAVEAKYDELKDKINKEMTAFLKELE
# B27: traf2_out_11_169_834 (protein)
# chain: EEKEKNRKINDFALEKNDEAKKKFKEYVLELAKEAGLDVEEIKKIFEENKNSSLSAIAAAVIKYFKEKGKEEEAKKVLEKYEELKEEINKKVTEKIKELE
# B28: traf2_out_18_167_1878 (protein)
# chain: SAELEKKLQEATDKLVELSAIRRWLRLALEALKESREKALAVLEAALKEFPDSEVLKEALKVAETKSDEELRKFLEEKIEELQKKANEEYKKLEALRKEK
# B29: traf2_out_17_178_1661 (protein)
# chain: SKEEKRKKISELTDELIDLAEAAADRALALAEAEGAVSPEELAALRRARRRGSATDVLALIERLIPRLPNAAALGALLDDFKAKYRELSKKIAEAYKEYE
# Molecular target: T1, TRAF2, Q12933
# Assay: median log2 fold change of GCK-ALFA target abundance (FLAG IP / Myc IP barcode read proportion) (log2 ratio); each designed protein is fused to an ALFA-tag nanobody in HEK293 cells to bring the named protein to FLAG-tagged glucokinase (GCK); Myc marks an untargeted standard; higher = target protein stabilised (more abundant)
# Conditions: target protein: 3xFLAG-MCP-GCK-ALFA reporter; HEK293 landing pad (RPLP)
# In short: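 An ALFA-nanobody-fused binder library was recombined into HEK293 landing-pad cells and induced with 2 μg mL^−1 doxycycline. Cells were transfected with a plasmid expressing a FLAG-tagged target and a Myc-tagged standard. After 48 h, lysates underwent anti-FLAG and anti-Myc immunoprecipitation, and circular RNA barcodes were reverse transcribed, amplified and sequenced. Target abundance is the per-binder median log2 ratio of FLAG to Myc barcode read proportions. Barcodes needed ≥10^−7 proportion in both replicates, binders ≥3 barcodes per replicate, and a 10^−6 pseudocount was added; the two replicates were pooled.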
row,Binder,median log2 fold change
1,B1,0.0716
2,B2,0.18
3,B3,0.163
4,B4,0.11
5,B5,-0.0195
6,B6,-0.62
7,B7,0.231
8,B8,0.077
9,B9,0.169
10,B10,0.149
11,B11,-0.0527
12,B12,0.14
13,B13,0.243
14,B14,-0.0477
15,B15,-0.387
16,B16,-0.793
17,B17,0.174
18,B18,0.0335
19,B19,0.294
20,B20,0.151
21,B21,0.171
22,B22,0.129
23,B23,-0.339
24,B24,0.296
25,B25,0.276
26,B26,0.182
27,B27,0.0793
28,B28,-0.0192
29,B29,-0.191
